Assay results reported in PubChem BioAssay AID504339 (National Center for Advancing Translational Sciences (NCATS), 2011).
The whole screen tested about 390,000 compounds, of which about 17,000 (4.4%) were called active. Inconclusive means that the source gave no clear call. Such entries were picked first, then a sample of the others. Calls follow the shape of the dose curve; as a rule, active = well fitted inhibition curve with a large enough effect; inconclusive = small, poorly fitted or top-dose-only effect; inactive = no such curve, though single readings can be large or run the other way. Potencies beside an inconclusive call are fits to weak or partial responses and may not hold up.

molecular target: Lysine-specific demethylase 4A (Homo sapiens) (UniProt O75164); assay: qHTS Assay for Inhibitors of JMJD2A-Tudor Domain; settings: AlphaScreen JMJD2A-Tudor / H3K4me3 peptide binding; activity change, negative = inhibition: at 114 µM (top of the series); also: nearly all actives have a fitted effect of over 50% in size
% is scaled to controls: 0 for no effect and ±100 for the full control effect; potency is read from the fitted curve at half-maximal effect; tags tell the direction and shape of the fitted curve.

UniProt O75164, sequence (O75164 whole entry, looked up, the tested form may be a part): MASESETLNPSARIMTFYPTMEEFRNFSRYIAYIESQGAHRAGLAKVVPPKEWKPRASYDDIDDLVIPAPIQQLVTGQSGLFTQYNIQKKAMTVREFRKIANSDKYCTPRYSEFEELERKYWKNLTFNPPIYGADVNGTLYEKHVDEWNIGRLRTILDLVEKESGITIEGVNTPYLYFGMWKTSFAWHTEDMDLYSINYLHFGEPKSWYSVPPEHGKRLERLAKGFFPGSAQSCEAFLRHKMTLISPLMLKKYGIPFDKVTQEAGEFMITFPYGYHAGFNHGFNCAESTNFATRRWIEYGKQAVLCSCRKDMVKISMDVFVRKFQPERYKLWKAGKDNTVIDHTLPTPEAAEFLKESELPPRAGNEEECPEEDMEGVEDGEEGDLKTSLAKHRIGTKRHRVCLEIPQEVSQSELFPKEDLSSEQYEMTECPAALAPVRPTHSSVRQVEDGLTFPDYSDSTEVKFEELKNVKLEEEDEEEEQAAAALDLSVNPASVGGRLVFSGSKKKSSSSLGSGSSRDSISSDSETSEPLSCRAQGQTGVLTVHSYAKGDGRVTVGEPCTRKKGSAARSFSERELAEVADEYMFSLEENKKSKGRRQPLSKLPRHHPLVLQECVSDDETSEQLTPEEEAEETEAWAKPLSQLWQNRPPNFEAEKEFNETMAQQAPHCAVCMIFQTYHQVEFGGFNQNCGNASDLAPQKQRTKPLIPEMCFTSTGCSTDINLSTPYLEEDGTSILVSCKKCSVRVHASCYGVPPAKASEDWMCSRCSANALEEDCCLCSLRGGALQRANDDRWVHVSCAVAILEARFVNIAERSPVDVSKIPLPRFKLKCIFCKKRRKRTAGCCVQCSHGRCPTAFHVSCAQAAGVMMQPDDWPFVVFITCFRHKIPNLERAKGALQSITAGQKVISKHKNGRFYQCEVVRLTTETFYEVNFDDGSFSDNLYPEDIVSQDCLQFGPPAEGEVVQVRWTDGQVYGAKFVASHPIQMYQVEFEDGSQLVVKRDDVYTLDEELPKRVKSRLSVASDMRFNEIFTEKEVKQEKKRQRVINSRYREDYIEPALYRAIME

Potency, inactive:
Cc1ccc(CNC(=O)Cc2noc3ccccc23)cc1
CCC(C)NC(=O)c1cccc(C)c1 (configuration not stated)
COc1ccc(S(=O)(=O)N2CCCCC2)cc1NC(=O)CNc1ccccc1C(C)=O
COc1ccc(CCn2c(Br)nc3c2c(=O)[nH]c(=O)n3C)cc1
Cc1cc(C)c2c(N)c(C(=O)NCC3CCCCC3)sc2n1
c1cc(CNCCNCc2ccncc2)ccn1
CCC(=O)Oc1oc(-c2ccccc2)nc1C=Nc1ccc(C)cc1
COc1cc2ccccc2cc1C(=O)N1CCN(c2nc3c(C)cc(C)cc3s2)CC1
COc1nc(OC)nc(Oc2ccc(Cl)cc2[N+](=O)[O-])n1
CNc1ccc(Cl)nn1
O=C(COc1ccccc1F)Nc1ccccc1OCc1cc(=O)n2ccccc2n1
CC1CCN(c2nc3ccc(C(=O)NCCCN4CCCCC4C)cc3s2)CC1 (configuration not stated)
Cc1cc2c(cc1C)NC(CC(=O)NCc1ccccc1)C(=O)N2 (configuration not stated)
CN(Cc1ccccc1)C(=O)CCS(=O)(=O)c1cc(Br)cc2c1N(C(=O)C1CC1)CC2
CCN(CC)S(=O)(=O)N1CCC(C(=O)NCc2ccco2)CC1
CCn1c(SCc2ccc(C#N)cc2)nnc1-c1cccc(Cl)c1
Cc1cccc(OCC(=O)Nc2nonc2-c2ccc(Br)cc2)c1C
Cc1ccc2c(C)nc(Nc3nc(CSc4nnc(C)s4)cc(=O)[nH]3)nc2c1
CCCN1C(=O)C(O)(CC(=O)c2ccc(CC)cc2)c2cc(Br)ccc21 (configuration not stated)
CCCCN(C)CCCNC(=O)CN1C(=O)COc2ccc(S(=O)(=O)N3CCC(C)CC3)cc21
O=C(NCCc1ccc(C(F)(F)F)cc1)C1CCC(=O)N(CCCN2CCCC2=O)C1 (configuration not stated)
Cc1ccc(CN2C(=O)C(Cc3ccccc3)Nc3ncnc(N4CCN(c5ccccc5)CC4)c32)cc1 (configuration not stated)

Potency, inconclusive:
CCn1nc(NS(=O)(=O)c2cccc3nonc23)c2cc3ccc(C)cc3nc21 89.1 µM [inhibitor, partial curve]
COc1cc2c(cc1OC)CN(S(=O)(=O)c1ccc(Cl)nc1)CC2 89.1 µM [inhibitor, single point]
O=C(Nc1ccccc1N1CCCC1)c1ccc([N+](=O)[O-])o1 56.2 µM [inhibitor, partial curve]
CCN(CC)S(=O)(=O)c1cccc(C(=O)N/N=C(\C)c2ccc(O)cc2O)c1 10 µM [inhibitor, full curve, poor fit]
CCc1ccc(-n2c(SCc3cc(=O)n4cc(Br)ccc4n3)nc3[nH]ncc3c2=O)cc1 89.1 µM [inhibitor, partial curve]
O=C(O)c1nn(-c2cccc(Cl)c2)c(=O)cc1O 28.2 µM [inhibitor, single point]
Cc1cc2c(s1)c1cnn(Cc3ccc(SC(F)(F)F)cc3)c(=O)c1n2C 39.8 µM [inhibitor, single point]
CCOc1cc(N2CCOCC2)c(OCC)cc1NC(=O)c1cccc(N(C)C)c1 39.8 µM [inhibitor, partial curve]
Nc1cc(S(=O)(=O)Nc2ccc(Cl)cc2)ccc1N1CCOCC1 50.1 µM [inhibitor, partial curve]
O=C(Nc1nc(N2C(=O)c3ccccc3C2=O)n(-c2ccccc2)n1)c1ccc(F)cc1 79.4 µM [inhibitor, partial curve]
Cc1ccc(NC(=O)c2cccc(C(F)(F)F)c2)cc1NC(=O)c1[nH]cnc1C(N)=O 56.2 µM [inhibitor, single point]
O=[N+]([O-])c1cc(S(=O)(=O)O)cc([N+](=O)[O-])c1NN(c1ccccc1)c1ccccc1 39.8 µM [inhibitor, full curve, poor fit]
O=C(CSc1nccn1-c1cccc(Cl)c1)Nc1cccc(C(F)(F)F)c1 31.6 µM [inhibitor, partial curve]
COc1ccc(Cn2nnnc2CN2CCN(c3ccc(OC)cc3)CC2)cc1 39.8 µM [inhibitor, partial curve]
Cc1cc(C2=NNC(=NC3CC3)SC2)c(C)n1Cc1ccco1 31.6 µM [inhibitor, single point]
CC(=O)N1c2ccc(S(=O)(=O)NCC3CCC(C(=O)N4CCCC(C)C4)CC3)cc2CC1C (configuration not stated) 15.8 µM [inhibitor, full curve, poor fit]
NNC(=S)NC1CCS(=O)(=O)C1 (configuration not stated) 89.1 µM [inhibitor, single point]
COc1ccccc1NC(=O)CN1CCN(c2ccc(F)cc2)CC1 28.2 µM [inhibitor, partial curve]
CCOC(=O)C1=C(C)NC(SCc2cc(=O)[nH][nH]2)=C(C#N)C1c1cccs1 (configuration not stated) 79.4 µM [inhibitor, partial curve]
CCN(CC)CCN1C(=O)C(=O)/C(=C(/O)c2c(C)[nH]c(C(=O)OC)c2C)C1c1ccccc1OC (configuration not stated) 89.1 µM [inhibitor, single point]
CCOc1ccc(N=CNc2ccc(OCC)cc2)cc1 5.62 µM [inhibitor, single point]
CCCCN(CC)S(=O)(=O)c1ccc2c(c1)CCCN2C(C)=O 89.1 µM [inhibitor, single point]
CCC(C)(C)NC(=O)C(c1ccc(OC)cc1)N(C(=O)CCC(=O)Nc1cc(C)on1)c1cccc(OC)c1 (configuration not stated) 89.1 µM [inhibitor, single point]
CN(C)c1ccc(-c2ccc3c(=O)c4ccccc4n(C)c3c2)cn1 44.7 µM [inhibitor, partial curve]
Cc1cccc(N2CCN(C(=O)c3cc4c(=O)n(C)c5ccccc5c4n3C)CC2C)c1 (configuration not stated) 25.1 µM [inhibitor, partial curve]
Cc1sc(NC(=O)CN2CCCC2)nc1-c1ccc2c(c1)CCN2C(=O)c1cccc(F)c1 50.1 µM [inhibitor, partial curve]
Cc1ccc(OCC(=O)Nc2ccc(C)c(S(=O)(=O)N3CCCCCC3)c2)c([N+](=O)[O-])n1 50.1 µM [inhibitor, partial curve]
Cc1c(C(=O)Nc2ccc(-c3nnc4n3CCCCC4)cc2)oc2c1ccc1ccccc12 14.1 µM [inhibitor, full curve, poor fit]
Cc1nc(SCC(=O)c2ccc(Cl)cc2)c([N+](=O)[O-])[nH]1 56.2 µM [inhibitor, partial curve, poor fit]
CCCCNC(=O)C1CCN(C(=O)N2CC(C)Oc3ccc(Cl)cc32)CC1 (configuration not stated) 20 µM [inhibitor, full curve, poor fit]
COC(=O)c1ccc(C2C(C(C)=O)=C(O)C(=O)N2CCO)cc1 (configuration not stated) 20 µM [inhibitor, full curve]
S=c1[nH]nc(-c2ccccc2)n1/N=C/c1ccc(Cl)cc1 50.1 µM [inhibitor, partial curve]

Potency, active:
COc1ccc(C2=NN(C(=O)CCCC(=O)O)C(c3cn(-c4ccccc4)nc3-c3ccccc3)C2)cc1 (configuration not stated) 56.2 µM
Cc1ccc(NCc2ccccc2O)cc1C 50.1 µM
COc1ccc(/C=C2\SC(=S)N(CCCC(=O)N3CCCCC3CCO)C2=O)cc1 (configuration not stated) 35.5 µM
O=C(CCCn1c(SCC(=O)c2ccc(O)c(O)c2)nc2ccccc2c1=O)NCC1CCCO1 (configuration not stated) 31.6 µM
CC1=NN(C(N)=S)C(=O)C1N=Nc1ccccc1O (configuration not stated) 56.2 µM
CCOC(=O)C1=C(C)N=c2s/c(=C/c3ccc(OCC(=O)O)cc3)c(=O)n2C1c1ccc(F)cc1 (configuration not stated) 79.4 µM
c1coc(CCNc2ncnc3ccc(-c4ccc5c(c4)OCO5)cc23)c1 56.2 µM
Cc1cccc(C)c1OCCCn1ccnc1 25.1 µM
COc1ccc(C(=O)Nc2ccccc2C(=O)NC(C)C)cc1OC 50.1 µM
O=C(O)CCCN1C(=O)/C(=C\c2ccccc2OCc2ccccc2)SC1=S 56.2 µM
Cc1ccc(-n2c(-c3ccncc3)n[nH]c2=S)c(C)c1 17.8 µM
Ic1ccc(N2CCN(Cc3c[nH]c4ncccc34)CC2)cc1 89.1 µM
C=CCOc1c(Br)cc(/C=C2/C(=O)ON=C2C)cc1OC 20 µM
CSc1ncccc1C(=O)Nc1ccc(OC(F)(F)F)cc1 11.2 µM
Cc1ccc(C(=O)c2coc3cc([N+](=O)[O-])c(O)c([N+](=O)[O-])c23)cc1 56.2 µM
CN(CCOc1ccccc1)CC(=O)Nc1ccc(Cl)c(S(=O)(=O)N(C)C)c1 2.82 µM
Cc1occc1-c1nnc(SCC(=O)NCC2CCCO2)n1C (configuration not stated) 56.2 µM
C=CCn1c(SCC(=O)N2CCOCC2)nc2scc(-c3ccco3)c2c1=O 28.2 µM
O=[N+]([O-])c1ccc(N=NNc2ccccc2)cc1 25.1 µM
COc1ccccc1-c1nnc2sc(-c3cnccn3)nn12 50.1 µM
Clc1ccc(-c2ccc(CNCc3ccccn3)o2)cc1 79.4 µM
CC(=O)c1sc2nc(-c3ccco3)ccc2c1N 79.4 µM

Activity change, negative = inhibition, inactive:
COC(=O)c1ccc(-c2noc(CN(Cc3nccn3C)C(C)C)n2)cc1 -14.3% [at 11.4 µM]
